Data on 107 compounds can be found in PubChem BioAssay AID1240 (Sanford-Burnham Center for Chemical Genomics, 2008).

Molecules are shown by their SMILES. In all, about 50,000 compounds went through this assay and about 800 (1.6%) showed an effect of 50% or more. This is one part of the list.

In the assay the target is Bcl-2-like protein 10 (Homo sapiens) (UniProt Q9HD36). Nature of the assay: TR3 peptide-Bcl-B binding displacers, biochemical primary FP assay, phenotype converters (AID 1240).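 Note: 0% = Bcl-B with tracer peptide and DMSO and 100% = tracer peptide lacking Bcl-B.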 The settings on record: GST-Bcl-B / FITC-TR3 peptide fluorescence polarization; stronger effect = higher value; compound at 3.75 mg/L.
UniProt Q9HD36, sequence (Q9HD36 whole entry, looked up): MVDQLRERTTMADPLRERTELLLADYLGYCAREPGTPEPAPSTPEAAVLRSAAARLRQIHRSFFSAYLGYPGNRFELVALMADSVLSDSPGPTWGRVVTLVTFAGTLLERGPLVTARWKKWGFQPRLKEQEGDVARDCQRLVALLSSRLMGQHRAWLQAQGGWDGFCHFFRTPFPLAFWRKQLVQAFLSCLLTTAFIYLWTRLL
On to `CCOC(=O)c1sc(NC(=O)c2ccc(S(=O)(=O)N3CCOCC3)cc2)c(C(=O)OCC)c1C`, for which the displacement was 8.8%.

As to `c1ccc2c(c1)OCC(c1csc(C3COc4ccccc4O3)n1)O2` (configuration not stated), the displacement is -0.3%.

With `O=C(O)COc1ccc(-c2nc3sc4c(c3c(=O)[nH]2)CCCC4)cc1`, the displacement is -14.6%.

In the case of `CCOc1cc(/C=C2\SC(=S)N(c3ccccc3)C2=O)cc([N+](=O)[O-])c1O`, the displacement was -22.5%.

For the compound `Cc1ccc(S(=O)(=O)CCc2nc3ccccc3o2)cc1C`, the displacement was -2.3%.

For `O=[N+]([O-])c1ccc(Sc2c(-c3ccccc3)nc3ccccn23)cc1`, the displacement was determined as 20%.

Take `COc1ccc(-c2nnc(NC(=O)c3ccc(Cl)cc3)s2)cc1OC`: the displacement is -4.3%.

`NC1=NC(=O)CC(C(=O)Nc2ccccc2)S1` (configuration not stated): the displacement was found to be 1.3%.

In the case of `COc1ccc(C2/C(=C(\O)c3ccc(F)cc3)C(=O)C(=O)N2CCCCCC(=O)O)c(OC)c1` (configuration not stated), the displacement was -1.6%.

On to `O=c1oc2cc(OCc3ccccc3F)ccc2c2c1CCCC2`, for which the displacement was -6.6%.

With `C=CCN1C(=O)/C(=C\c2cc(C)n(-c3ccc([N+](=O)[O-])cc3)c2C)SC1=S`, the displacement turned out to be 14.9%.

`CCOC(=O)Cc1csc(NC(=O)COc2c(C)cccc2C)n1`: the displacement was 3.5%.

For `O=C1/C(=C\c2ccc([N+](=O)[O-])cc2)SC(=S)N1c1cccc(C(F)(F)F)c1`, the displacement turned out to be 7.7%.

`COc1c(Cl)cc(C(=O)N2CCN(c3ccc(-n4c(C)ccc4C)cc3[N+](=O)[O-])CC2)cc1Cl`: the displacement is 11.4%.

Take `O=C(NC(c1ccccc1)c1ccccc1)c1ccc(Cl)c([N+](=O)[O-])c1`: the displacement is 7.3%.

For `COc1ccccc1C(=O)Oc1ccc2oc(=O)sc2c1`, the displacement was 13.3%.

Consider `COC(=O)c1cccc(NC(=O)CCCOc2ccccc2)c1`, for which the displacement came to 0.6%.

Regarding `CSc1ccc(C2Nc3ccccc3NC3=C2C(=O)CC(c2ccccc2)C3)cc1` (configuration not stated), the displacement came out at 1.2%.

For the compound `CCOc1cc(C(=O)Nc2ccc(Cl)cc2Cl)cc(OCC)c1OCC`, the displacement is 12.1%.

On to `COc1ccc(OCC(=O)NCCCN2CCOCC2)cc1`, for which the displacement is -8.9%.

Regarding `C=CCn1c(SCC(=O)NCCCO)nc2sc3c(c2c1=O)CCC3`, the displacement was -10.9%.

`C=C(C)c1cccc(C(C)(C)NC(=O)Nc2ccc(C(N)=O)cc2)c1`: the displacement was 1%.

`COc1cccc(C(=O)N2c3ccccc3Sc3ccccc32)c1`: the displacement was -6.7%.

Consider `Cc1ccc(/C=N/NC(=O)c2cc(C3CC3)[nH]n2)cc1`, for which the displacement was -12.2%.

Regarding `CC1=CC(C)(C)Nc2ccc(OC(=O)C(Cc3ccccc3)N3C(=O)c4ccccc4C3=O)cc21` (configuration not stated), the displacement was -8.8%.

`COc1cccc(CN2CCN(Cc3c[nH]c4ccccc34)CC2)c1OC`: the displacement is -5.2%.

Take `Cc1ccc2ncnc(NCCCN3CCOCC3)c2c1`: the displacement came to 8.6%.

Take `O=C(Nc1cccnc1)c1ccccc1Br`: the displacement was -6.7%.

Turning to `O=C(Nc1cc(Cl)cc(Cl)c1)C(c1ccccc1)c1ccccc1`, the displacement was -2.6%.

For the compound `O=[N+]([O-])c1ccc(-c2ccc(/C=N/n3cnnc3)o2)cc1`, the displacement amounted to 139%.

As for `O=C(COc1ccc2ccccc2c1)Nc1ccc(Cl)cc1Cl`, the displacement was -9.8%.

For `Cc1cccc(OCC(=O)Nc2ccccc2C(C)C)c1C`, the displacement came to 1.3%.

For `CCOC(=O)C1=C(C)N=c2s/c(=C/c3ccc(Cl)cc3)c(=O)n2C1c1ccccc1` (configuration not stated), the displacement is 90.8%.

For the compound `CC(C)(C)c1ccc(OCCOc2ccc(/C=N/n3cnnc3)cc2)cc1`, the displacement was -3.3%.

For `Cc1ccc(C(=O)Nn2c(O)c(C3=c4ccccc4=NC3=O)sc2=S)cc1`, the displacement was -18.6%.

For `CCCCC1(C2CCCCC2)Cc2ccccc2-c2nc(SCC(N)=O)[nH]c(=O)c21` (configuration not stated), the displacement was -2.9%.

For the compound `COc1ccc(C(=O)N2CCN(Cc3ccc(Br)cc3)CC2)cc1OC`, the displacement was -5.4%.

In the case of `COc1ccc(S(=O)(=O)Nc2ncccn2)cc1`, the displacement came out at 17.2%.

On to `CCn1c2ccccc2c2cc(NC(=O)Cc3ccc(Cl)cc3)ccc21`, for which the displacement amounted to 15.1%.

With `FC(F)(F)COc1nc(N2CCNCC2)nc(N(c2ccccc2)c2ccccc2)n1`, the displacement came to 7.7%.

Regarding `Cc1ccc(C)c(OCc2nnc(NC(=O)c3ccco3)s2)c1`, the displacement is -16.3%.

For the compound `CC(=O)Nc1ccc(N2C(=O)c3cccc4c([N+](=O)[O-])ccc(c34)C2=O)cc1`, the displacement is -4.1%.

Regarding `CC1=C(C(=O)Nc2ccc(Cl)cc2)C(c2ccc(Br)cc2)NC(=S)N1` (configuration not stated), the displacement was -2.1%.

For `O=C1C(Nc2ccccc2)=CC(c2ccccc2Cl)N1c1ccccc1` (configuration not stated), the displacement was -0.7%.

For `CN(C)CCCN1C(=O)C2CC3=C(CC2C1=O)C(C)(C)CCC3` (configuration not stated), the displacement amounted to 3.7%.

As to `O=C(COc1ccc2c3c(c(=O)oc2c1)CCC3)c1ccc(F)cc1`, the displacement stood at 7.8%.

Turning to `Cc1ccc([N+](=O)[O-])cc1NC(=O)CCCOc1ccccc1`, the displacement is 8.1%.

`O=S(=O)(c1cccc2cccnc12)N1CCN(c2ccccc2)CC1`: the displacement is -8.1%.

In the case of `Cc1cccc(C(=O)NNC(=O)c2ccc(O)cc2O)c1`, the displacement is -27.7%.

Take `CC(=O)N(c1ccc(Br)cc1)C1SC(=O)N(c2cccc(C)c2)C1=O` (configuration not stated): the displacement was -0.5%.

For `COc1ccc(/C(N)=N/OC(=O)c2cccc(Br)c2)cc1OC`, the displacement is -1.7%.

On to `O=C1/C(=C/c2ccco2)SC(=S)N1c1cccc(C(F)(F)F)c1`, for which the displacement is 15.4%.

In the case of `O=C1CSC(=S)N1/N=C\c1ccc(O)c([N+](=O)[O-])c1`, the displacement was -27.5%.

For `COc1ccc(N2CC(C(=O)OCC(=O)c3ccc(Br)cc3)CC2=O)cc1` (configuration not stated), the displacement was -2.3%.

Turning to `CCOc1ccccc1NC(=O)c1ccccc1[N+](=O)[O-]`, the displacement was -6%.

For the compound `COc1ccc(/C=C/C(=O)C(C)(C)OC(C)=O)cc1`, the displacement is -11.5%.

`COc1ccc(-c2nn(-c3ccccc3)cc2/C=C2\N=C(c3ccccc3)OC2=O)cc1[N+](=O)[O-]`: the displacement was 93.8%.

In the case of `O=C(CN(CCc1ccccc1)S(=O)(=O)c1ccccc1)Nc1ccc(Cl)cc1Cl`, the displacement was determined as 4.5%.

Regarding `COCCNS(=O)(=O)c1ccc(Cl)cc1`, the displacement was determined as 3.9%.

In the case of `Cc1ccc(C(=O)N/C(=C\c2ccc(C(C)C)cc2)C(=O)NCC(C)C)cc1`, the displacement was determined as 8.8%.

For the compound `Cc1cc(C)n2nc(-c3ccc(I)cc3)cc2n1`, the displacement was -6.8%.

Consider `CCOc1cc(/C=N/N=C2/NC(=O)CS2)cc(I)c1O`, for which the displacement was -7.8%.

Turning to `O=C(Nc1ccc2oc(-c3ccc(Cl)cc3Cl)nc2c1)c1ccccc1`, the displacement is -3.1%.

On to `COC(=O)c1cccc(NC(=O)/C=C/c2ccccc2)c1`, for which the displacement amounted to 17.7%.

For `COc1ccccc1NC(=O)C1=C(C)NC(=S)NC1c1ccc(F)cc1` (configuration not stated), the displacement was -13.5%.

Consider `COc1ccc(OC)c(C2Sc3ccccc3NC3=C2C(=O)c2ccccc23)c1` (configuration not stated), for which the displacement stood at 7.1%.

As for `O=C1/C(=C\c2ccc(N3N=C(c4ccccc4)CC3c3ccccc3)cc2)SC(=S)N1C1CCS(=O)(=O)C1` (configuration not stated), the displacement was -14.9%.

As to `CC(C)(C)C1=CC(=C(C#N)C#N)C(C(C)(C)C)C(=O)C1=O` (configuration not stated), the displacement is 2.2%.

Regarding `CCOC(=O)c1c(NC(=O)CSc2nnc3c4ccccc4n(CC)c3n2)sc2c1CCC2`, the displacement turned out to be 10.6%.

As for `CCOC(=O)c1c(NC(=O)CSc2nnc(C)c(=O)[nH]2)sc2c1CCCC2`, the displacement was 9.8%.

For `O=C(NC(=S)Nc1nc(-c2ccccc2)cs1)c1ccc(Cl)cc1`, the displacement stood at 12.6%.

In the case of `Cc1ccc(NC(=O)COc2ccc(Cl)cc2Cl)cc1C`, the displacement was determined as 5.8%.

As for `COc1ccc(CCN2C(=O)CSC2c2ccc(Cl)cc2Cl)cc1OC` (configuration not stated), the displacement was -3.8%.

Regarding `Cc1ccc(OCC(N)=O)c(Br)c1`, the displacement is 4.8%.

As for `Cc1cc(C)c(/C(=C2\OC(=O)c3ccccc32)[N+](=O)[O-])cc1C`, the displacement was -8.6%.

On to `CCOc1cc2oc(=O)c(CC)c(C)c2cc1CC`, for which the displacement was -5.3%.

For the compound `COc1ccc(N(CC(=O)Nc2ccc(OC)c(OC)c2)S(C)(=O)=O)c(OC)c1`, the displacement was -5%.

In the case of `COc1ccc(C(=O)NCCSCc2ccccc2Cl)cc1`, the displacement is -1.3%.

On to `Cc1ccccc1NC(=O)c1cc(C(=O)Nc2ccccc2C)n(C)n1`, for which the displacement came out at 0.6%.

In the case of `CCOC(=O)C(=CNc1ccc(OCC)cc1)C(=O)OCC`, the displacement came out at 0.2%.

`COc1cc(/C=C2/SC(=S)N(C)C2=O)cc(Br)c1OCCOc1ccccc1C`: the displacement was -2%.

Regarding `CCOC(=O)C1=C(C)NC2=C(C(=O)CC(C)(C)C2)C1c1ccc(OCc2ccc(C)cc2)c(OC)c1` (configuration not stated), the displacement was -8.7%.

As for `COc1cccc(N2C(=O)NC(=O)/C(=C/C=C/c3ccccc3[N+](=O)[O-])C2=O)c1`, the displacement came out at 1.8%.

As to `COCCNC(=O)CN(c1ccccc1OC)S(=O)(=O)c1ccccc1`, the displacement came out at 5.7%.

As for `CCOC(=O)c1ccc(N=CC2=C(O)CC(C)(C)CC2=O)cc1`, the displacement is -8.1%.

As for `O=C(O)CCCCCN1C(=O)C(=O)/C(=C(\O)c2ccc(Br)cc2)C1c1ccc2c(c1)OCO2` (configuration not stated), the displacement came out at 0.9%.

Turning to `COCCOC(=O)C1=C(C)NC2=C(C(=O)CC(C)(C)C2)C1c1cccc(Br)c1` (configuration not stated), the displacement was found to be 5.4%.

`Cc1ccc(OCC(=O)Nc2ccc(F)cc2)c(Br)c1`: the displacement is -10.9%.

With `COc1cc(Br)c(CNc2cccc(C)c2)cc1OC`, the displacement was 4.8%.

With `O=C(/C=C/c1cccc([N+](=O)[O-])c1)Nc1cccc(-c2nc3cc(Cl)ccc3o2)c1`, the displacement came out at 33.9%.

With `C/C(=N\N=C1\NC(=O)C(CC(=O)Nc2ccccc2C)S1)c1ccc(F)cc1` (configuration not stated), the displacement turned out to be 12.3%.

For the compound `CCC(C)NC(=O)CN(c1ccc(Oc2ccccc2)cc1)S(C)(=O)=O` (configuration not stated), the displacement is -11.5%.

In the case of `CCOC(=O)c1cc(-c2ccc(I)cc2)nc2ccccc12`, the displacement was -10.1%.

As for `COc1cc(/C=C2/C(=O)NN(c3ccccc3)C2=O)ccc1O`, the displacement was -33.9%.

Turning to `COc1ccc(N2C(=O)CC(Sc3nc4ccccc4s3)C2=O)cc1` (configuration not stated), the displacement is -30.1%.

In the case of `O=C1C(=O)N(c2ccccc2)C(c2ccccc2)/C1=C(\O)c1ccc(Br)cc1` (configuration not stated), the displacement was -1%.

With `COc1ccc(NC(=O)COc2ccc(-c3ccc(C)cc3)cc2)cc1`, the displacement is -6.3%.

With `CNc1nnc(SCc2c(F)cccc2Cl)s1`, the displacement is -1.9%.

Turning to `O=C(CCc1ccccc1)ONC(=O)c1ccc(Cl)cc1`, the displacement came to 10.5%.

Regarding `Cc1cnn(-c2cc(N/N=C/c3ccccc3)ncn2)c1`, the displacement is -10.9%.

Consider `Cc1ccc2c(Cl)c(C(=O)Nc3cccc(C(F)(F)F)c3)sc2c1`, for which the displacement was 5.4%.

Regarding `COc1cc(OC)c(OC)cc1CN1CCN(C(=O)c2ccc(-c3ccccc3)cc2)CC1`, the displacement is -13.2%.

On to `Cc1ccc(OCCCCN2CCC(C)CC2)c(Cl)c1`, for which the displacement was -6.9%.

As to `COc1ccc(Br)cc1/C=N/OC(C)=O`, the displacement is 0.6%.

In the case of `C/C(=N\NC(=O)c1cc(-c2cccc([N+](=O)[O-])c2)n[nH]1)c1ccccc1O`, the displacement was -38.6%.

Turning to `CCc1cccc(C)c1NC(=O)CCOc1ccccc1`, the displacement is -8.1%.

Consider `COc1ccc(CCN2C(=O)CC(N3CCN(C/C=C\c4ccccc4)CC3)C2=O)cc1OC` (configuration not stated), for which the displacement was -8%.
